In all, about 310,000 compounds went through this assay and about 14,000 (4.5%) showed an effect of 50% or more. Effects have a minus sign here. Some of the results follow.
biological target: human ether-à-go-go-related gene (hERG) potassium channel (human, UniProt Q12809); test: primary screen, population patch clamp on CHO cells stably expressing hERG
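Further: peak tail current of the secondary pulse compared with the same well before compound.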

Chain of human ether-à-go-go-related gene (hERG) potassium channel (Q12809 whole entry, looked up): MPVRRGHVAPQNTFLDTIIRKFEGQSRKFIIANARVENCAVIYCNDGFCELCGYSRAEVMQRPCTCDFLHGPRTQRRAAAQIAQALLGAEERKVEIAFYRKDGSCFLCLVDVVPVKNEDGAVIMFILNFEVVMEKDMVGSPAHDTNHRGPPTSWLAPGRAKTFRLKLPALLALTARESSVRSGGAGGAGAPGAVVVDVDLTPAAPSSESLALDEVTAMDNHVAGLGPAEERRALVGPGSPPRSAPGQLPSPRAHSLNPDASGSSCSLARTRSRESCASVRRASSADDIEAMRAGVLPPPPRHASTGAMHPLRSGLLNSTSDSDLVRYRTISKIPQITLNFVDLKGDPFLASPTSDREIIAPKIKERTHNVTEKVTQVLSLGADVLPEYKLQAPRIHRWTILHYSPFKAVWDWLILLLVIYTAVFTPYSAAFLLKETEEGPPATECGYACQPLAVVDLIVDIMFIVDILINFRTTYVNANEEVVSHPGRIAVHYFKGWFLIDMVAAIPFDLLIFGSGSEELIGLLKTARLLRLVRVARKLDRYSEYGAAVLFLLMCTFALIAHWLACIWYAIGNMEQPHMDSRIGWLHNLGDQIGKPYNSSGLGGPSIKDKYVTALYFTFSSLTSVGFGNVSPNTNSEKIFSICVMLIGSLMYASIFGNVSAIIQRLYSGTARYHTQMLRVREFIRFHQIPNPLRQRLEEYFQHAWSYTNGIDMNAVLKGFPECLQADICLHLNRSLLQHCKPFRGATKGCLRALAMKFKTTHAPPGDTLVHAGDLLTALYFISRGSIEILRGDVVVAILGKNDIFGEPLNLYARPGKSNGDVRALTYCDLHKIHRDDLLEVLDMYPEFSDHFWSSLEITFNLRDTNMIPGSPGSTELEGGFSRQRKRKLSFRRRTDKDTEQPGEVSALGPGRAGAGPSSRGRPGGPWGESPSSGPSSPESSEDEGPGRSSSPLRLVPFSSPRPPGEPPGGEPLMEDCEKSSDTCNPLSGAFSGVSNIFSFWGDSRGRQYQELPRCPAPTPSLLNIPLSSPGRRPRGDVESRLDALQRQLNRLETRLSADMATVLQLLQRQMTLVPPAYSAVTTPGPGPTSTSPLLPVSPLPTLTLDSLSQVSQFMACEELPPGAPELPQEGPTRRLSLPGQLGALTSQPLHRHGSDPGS

Q: For `O=C(NCc1ccc(Cl)c(Cl)c1)C1CCCC1`, which “hERG current change (%, negative = inhibition) at 10uM” value is on record?
A: -1.13%

Q: `Cc1ccc(-c2cc(-c3c(C)nn(C)c(=O)c3N)[nH]n2)cc1` was tested. Which “hERG current change (%, negative = inhibition) at 10uM” value did it give?
A: 16.4%

Q: With `O=C(CC1SC(=O)N(Cc2cccc3ccccc23)C1=O)Nc1nccs1` (centres unmarked) as the compound, how does the “hERG current change (%, negative = inhibition) at 10uM” value read?
A: 6.31%

Q: For `CCOC(=O)N1CCN(C(=O)c2ccccc2N(Cc2ccccc2)S(=O)(=O)c2ccc(OC)cc2)CC1`, which “hERG current change (%, negative = inhibition) at 10uM” value is on record?
A: -26.3%

Q: Which “hERG current change (%, negative = inhibition) at 10uM” value does the source give for `COc1cc(/C=N/NC(=O)c2ccc3c(c2)OCCO3)cc(Br)c1O` here?
A: -12.2%

Q: For `Cc1nc2ccc(Nc3ccncc3)cc2s1`, which “hERG current change (%, negative = inhibition) at 10uM” value is on record?
A: -16.6%

Q: For `CN1CCN(C2=C(Cl)C(=O)C(c3cnc(N4CCCCC4)s3)=C(Cl)C2=O)CC1`, which “hERG current change (%, negative = inhibition) at 10uM” value is on record?
A: 6%

Q: How did the “hERG current change (%, negative = inhibition) at 10uM” value turn out when `O=C(NCCC(=O)N1CCN(c2ncccn2)CC1)c1ccccc1Cl` was run?
A: 6.64%

Q: For `COc1ccc(C(=O)NC2CC2)cc1OC1CCN(Cc2ccc(F)cc2Cl)CC1`, which “hERG current change (%, negative = inhibition) at 10uM” value is on record?
A: -70.9%

Q: How did the “hERG current change (%, negative = inhibition) at 10uM” value turn out when `Cc1ccc(S(=O)(=O)Cn2nnnc2C(C(C)C)N2CCN(c3nc4ccccc4s3)CC2)cc1` (centres unmarked) was run?
A: 9.27%

Q: For `Cc1ccc(CNC(=O)C2CCCN(C(=O)N(C)C)C2)cc1` (centres unmarked), which “hERG current change (%, negative = inhibition) at 10uM” value is on record?
A: 4.16%

Q: With `COc1ccccc1C(=O)NCCC(=O)NNC(=O)Cn1ccc(C(F)(F)F)n1` as the compound, how does the “hERG current change (%, negative = inhibition) at 10uM” value read?
A: -12.2%

Q: `CC(C)(Cc1nc2ccccc2[nH]1)C(=O)O` was tested. Which “hERG current change (%, negative = inhibition) at 10uM” value did it give?
A: 0.303%

Q: Which “hERG current change (%, negative = inhibition) at 10uM” value does the source give for `COc1cc2c(cc1NC(=O)CN1CCN(S(=O)(=O)c3ccc(F)cc3)CC1)oc1ccccc12` here?
A: 13.7%

Q: For `CCN1CCN(CCCNC(=O)CCC(=O)N2CC(C)Oc3ccc(C)cc32)CC1` (centres unmarked), which “hERG current change (%, negative = inhibition) at 10uM” value is on record?
A: -12.5%

Q: Which “hERG current change (%, negative = inhibition) at 10uM” value does the source give for `COc1ccc2ccn(C)c2c1` here?
A: 13.2%

Q: Which “hERG current change (%, negative = inhibition) at 10uM” value does the source give for `Cc1cccn2c(=O)c(/C=N/O)c(N3CCCCC3)nc12` here?
A: -0.844%

Q: `COc1ccc(/C=C2\N=C(C)N(c3ccc4ccccc4c3)C2=O)cc1OC` was tested. Which “hERG current change (%, negative = inhibition) at 10uM” value did it give?
A: -3.56%

Q: `CC(=O)c1ccc(NC(=S)NCCc2ccc(S(N)(=O)=O)cc2)cc1` was tested. Which “hERG current change (%, negative = inhibition) at 10uM” value did it give?
A: 5.38%

Q: How did the “hERG current change (%, negative = inhibition) at 10uM” value turn out when `Cc1ccc(N2C(=O)C(Cl)=C(N3CCOCC3)C2=O)cc1Cl` was run?
A: -18.4%

Q: For `NC(=O)C1CCN(c2ncnc3c2c(-c2ccccc2)cn3-c2ccccc2)CC1`, which “hERG current change (%, negative = inhibition) at 10uM” value is on record?
A: 7.86%

Q: `C=CCc1cccc(/C=N/NC(=O)CCCNc2ccc(C)cc2)c1O` was tested. Which “hERG current change (%, negative = inhibition) at 10uM” value did it give?
A: 11.9%

Q: `COc1ccc(N(C(=O)c2ccc(Br)o2)C2C=CS(=O)(=O)C2)cc1` (centres unmarked) was tested. Which “hERG current change (%, negative = inhibition) at 10uM” value did it give?
A: -25.7%

Q: `COC(=O)/C=C/c1ccccc1CN1[C@@H](CC(=O)OC)c2ccccc2S1(=O)=O` was tested. Which “hERG current change (%, negative = inhibition) at 10uM” value did it give?
A: -10.6%

Q: Which “hERG current change (%, negative = inhibition) at 10uM” value does the source give for `COc1ccc(CC(=O)NCc2ccccc2)cc1S(=O)(=O)N1CCOCC1` here?
A: -8.27%

Q: `CCN(CC(=O)Nc1ccccc1C(F)(F)F)C(=O)c1oc2c(Cl)cccc2c1C` was tested. Which “hERG current change (%, negative = inhibition) at 10uM” value did it give?
A: -23.6%

Q: `COc1ccc2c(c1)CCc1c-2n[nH]c1C(=O)O` was tested. Which “hERG current change (%, negative = inhibition) at 10uM” value did it give?
A: 17.8%

Q: With `O=C(c1ccccc1)N1CCN(C(=O)C2CC2)CC1` as the compound, how does the “hERG current change (%, negative = inhibition) at 10uM” value read?
A: 27.4%

Q: For `Cc1cc(C(=O)CCC(=O)NNC(=O)c2ccccc2O)c(C)s1`, which “hERG current change (%, negative = inhibition) at 10uM” value is on record?
A: 1.96%

Q: `CCC(=O)N1CCc2cc(S(=O)(=O)N(CC)c3cccc(C)c3)ccc21` was tested. Which “hERG current change (%, negative = inhibition) at 10uM” value did it give?
A: -4.05%

Q: `O=C1Nc2ccc(Br)cc2C12NNc1ccccc1O2` (centres unmarked) was tested. Which “hERG current change (%, negative = inhibition) at 10uM” value did it give?
A: 23.9%

Q: `Cc1cccc(C(=O)N=c2c(C#N)cc3c(=O)n4cccc(C)c4nc3n2Cc2ccco2)c1` was tested. Which “hERG current change (%, negative = inhibition) at 10uM” value did it give?
A: -65%

Q: `Cc1ccc(-c2nc3cc(NC(=O)C(C)C)ccc3o2)cc1` was tested. Which “hERG current change (%, negative = inhibition) at 10uM” value did it give?
A: 12.5%

Q: For `CCN1CCN(C(=O)c2cc3c(-c4ccc(Cl)cc4)nn(C)c3s2)CC1`, which “hERG current change (%, negative = inhibition) at 10uM” value is on record?
A: -46.7%

Q: How did the “hERG current change (%, negative = inhibition) at 10uM” value turn out when `CCOC(=O)N1CCN(C(=O)CCN2C(=O)COc3ccc(C)cc32)CC1` was run?
A: -13.9%

Q: For `CC1CCN(c2ccc(-c3cccc(NC(=O)C(F)(F)F)c3)nn2)CC1`, which “hERG current change (%, negative = inhibition) at 10uM” value is on record?
A: -32.8%

Q: How did the “hERG current change (%, negative = inhibition) at 10uM” value turn out when `O=C(CSc1cc(Cl)ccc1Cl)NC1CC1` was run?
A: -6.75%

Q: For `COC(=O)c1c(C(=O)OC)c2cc(C(=O)c3ccccc3)ccn2c1Cl`, which “hERG current change (%, negative = inhibition) at 10uM” value is on record?
A: 2.15%

Q: `Brc1ccccc1OCCCCN1CCCCC1` was tested. Which “hERG current change (%, negative = inhibition) at 10uM” value did it give?
A: -39.1%

Q: How did the “hERG current change (%, negative = inhibition) at 10uM” value turn out when `C=CCNC(=O)C1CC1(c1ccccc1)c1ccccc1` (centres unmarked) was run?
A: -1.08%

Q: How did the “hERG current change (%, negative = inhibition) at 10uM” value turn out when `COc1cc(C(=O)Oc2ccccc2/C=N/NC(=O)c2ccc(Cl)cc2)cc(OC)c1OC` was run?
A: 12.8%

Q: Which “hERG current change (%, negative = inhibition) at 10uM” value does the source give for `CC1CCCC(NC(=O)CSc2ncccc2C(=O)O)C1C` (centres unmarked) here?
A: 8%

Q: For `CN(CCOC(=O)c1ccco1)Cc1ccccc1`, which “hERG current change (%, negative = inhibition) at 10uM” value is on record?
A: -7.24%

Q: How did the “hERG current change (%, negative = inhibition) at 10uM” value turn out when `COC(=O)CCN(C(=O)c1ccc(N2CCCCC2)c([N+](=O)[O-])c1)c1ccccn1` was run?
A: -2.49%

Q: How did the “hERG current change (%, negative = inhibition) at 10uM” value turn out when `COc1cc2ccccc2cc1C(=O)Nc1ccc(C)cc1` was run?
A: 12.3%

Q: With `CCOC(=O)c1sc(NC(=O)C(OC(C)=O)c2ccccc2)nc1C` (centres unmarked) as the compound, how does the “hERG current change (%, negative = inhibition) at 10uM” value read?
A: -6.48%

Q: For `CCN(CC)S(=O)(=O)c1ccc(N2CCCC2)c(C(=O)OCC(=O)Nc2cc(C)on2)c1`, which “hERG current change (%, negative = inhibition) at 10uM” value is on record?
A: -17.4%

Q: How did the “hERG current change (%, negative = inhibition) at 10uM” value turn out when `COc1cc(Cl)ccc1OCc1cc(C(=O)N2C[C@H]3CC[C@H]2C3)no1` was run?
A: -10.4%

Q: Which “hERG current change (%, negative = inhibition) at 10uM” value does the source give for `Cc1nc2cc(NC(=O)CSc3nc4c(C)cccc4cc3C#N)ccc2s1` here?
A: 23.3%

Q: How did the “hERG current change (%, negative = inhibition) at 10uM” value turn out when `O=Nc1c(-c2cccc([N+](=O)[O-])c2)nc2ncccn12` was run?
A: 5.17%

Q: For `Cc1nn(Cc2c(Cl)cccc2Cl)c(Cl)c1/C=C/C(=O)OCC(=O)NCC(F)(F)F`, which “hERG current change (%, negative = inhibition) at 10uM” value is on record?
A: 8.16%

Q: Which “hERG current change (%, negative = inhibition) at 10uM” value does the source give for `C[n+]1c2n(c3ccccc31)N=C(c1ccccc1)CS2.[Br-]` here?
A: -47.3%

Q: With `O=c1c2cc3c(nc2[nH]c(=S)n1-c1ccccc1)CCCC3` as the compound, how does the “hERG current change (%, negative = inhibition) at 10uM” value read?
A: -7.29%

Q: How did the “hERG current change (%, negative = inhibition) at 10uM” value turn out when `COC(C(=O)N/N=C/c1ccc(OCC(=O)N2CCOCC2)cc1)c1ccccc1` (centres unmarked) was run?
A: 15.9%

Q: `CN(Cc1ccccc1)C(=O)c1[nH]cnc1C(=O)NCc1ccc(CNC(=O)OC(C)(C)C)cc1` was tested. Which “hERG current change (%, negative = inhibition) at 10uM” value did it give?
A: -6.68%

Q: Which “hERG current change (%, negative = inhibition) at 10uM” value does the source give for `CCN(Cc1nc2ccccc2c(=O)[nH]1)C(=O)COc1ccccc1-c1ccccc1` here?
A: -32%

— PMC4336329 (PLoS ONE, 2015)
